Measured values published in PubChem BioAssay AID686978 (National Center for Advancing Translational Sciences (NCATS), 2013).
In all, about 420,000 compounds went through this assay and about 64,000 (15%) were called active. The inconclusive results got no clear call from the source; some entries with a clear call stand among them for comparison. Calls follow the shape of the dose curve; as a rule, active = well fitted inhibition curve with a large enough effect; inconclusive = small, poorly fitted or top-dose-only effect; inactive = flat fitted curve, though single readings scatter. Potencies of inconclusive entries are left out as doubtful fits.

Test: qHTS for Inhibitors of human tyrosyl-DNA phosphodiesterase 1 (TDP1): qHTS in cells in absence of CPT; also: nearly all actives have a fitted effect of over 55% in size
Conditions: DT40 Tdp1-/- hTDP1 cells, no CPT, ATP luminescence, 48 h; activity change, negative = growth inhibition: at 46.2 µM (top of the series) unless noted
Procedure, shortened: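 Growth of hTDP1-complemented DT40 Tdp1-knockout cells is measured by ATP luminescence after at least 48 hr compound exposure at 37 °C, with DMSO substituting for the 20 nM CPT used in the parallel screen.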
% is scaled to controls: 0 for no effect and ±100 for the full control effect; potency is read from the fitted curve at half-maximal effect; tags tell the direction and shape of the fitted curve.

SMILES | Potency | activity change, negative = growth inhibition
COc1ccc(C(=O)C=Cc2cccs2)c(O)c1 | inconclusive [inhibitor, single point] | –
CCc1ccc2nc3c(c(C(=O)O)c2c1)CCC3 | – | inactive: -3.8%
COc1ccc(S(=O)(=O)N2CCC(C(=O)NC3CC3)CC2)cc1Cl | inconclusive [inhibitor, partial curve] | –
CC(C)(C)C1CCc2c(sc(NC(=O)c3ccncc3)c2C(N)=O)C1 (centres undefined) | inconclusive [inhibitor, single point] | –
Cc1cc(C)nc(N(C#N)CC(=O)N(c2ccccc2)C(C)C)n1 | inconclusive [inhibitor, single point] | –
COc1ccc(Cl)cc1NC(=O)C12CCC(C)(C(=O)O1)C2(C)C (centres undefined) | inconclusive [inhibitor, partial curve] | –
C=CCn1c(SC(C)C(=O)NCc2ccc3c(c2)OCO3)nc2scc(-c3ccccc3)c2c1=O (centres undefined) | – | inconclusive: -37.2% [inhibitor]
Cn1c(NC(=O)C[n+]2cc(-c3ccc(F)cc3)n3c2CCC3)cc(=O)n(C)c1=O | inconclusive [inhibitor, single point] | –
C=CCn1c(SCC(=O)Nc2cc(C)on2)nc2sc(C)c(C)c2c1=O | active: 6.51 µM | –
CCn1ccc2cc(S(=O)(=O)N3CCC(C(=O)NCc4ccc(F)cc4)CC3)ccc21 | inconclusive [inhibitor, single point] | –
CC(CNCCCn1cnc2c(OCc3ccccc3)ncnc21)c1ccccc1 (centres undefined) | inconclusive [inhibitor, single point] | –
Cc1cccc(OCC(=O)Nc2ccccc2OCc2cc(=O)n3cc(C)ccc3n2)c1 | inconclusive [inhibitor, partial curve] | –
CCOC(=O)[C@H]1[C@H]2COc3ccc(C)cc3[C@@H]2N2C(=O)CN(Cc3ccccc3)C(=O)[C@@]12C | inconclusive [inhibitor, single point] | –
Cc1cc(NC(=O)COC(=O)c2cc(S(=O)(=O)N(C)c3ccccc3)ccc2Cl)no1 | – | inactive: -2.77%
O=C1/C(=C\c2ccccc2)SC(=S)N1CCC(=O)N1CCCCC1CCO (centres undefined) | inconclusive [inhibitor, single point] | –
COc1ccc2cnn(CCOc3cc(C)ccc3C(C)C)c(=O)c2c1OC | active: 16.4 µM | –
C[C@@H]1CCC[C@@]2(O[C@@H](CCO)C[C@@H](O)[C@@H]2O)O1 | – | inactive: -19.8%
CN(C)Cc1ccc(CNC(=O)COc2ccc3ccccc3c2)cc1 | inconclusive [inhibitor, single point] | –
O=C(/C=C/c1ccccc1Cl)NC1CCCCC1 | inconclusive [inhibitor, single point] | –
CC(=O)C1=C(O)C(=O)N(c2cc(C(C)(C)C)on2)C1c1ccc(Br)cc1 (centres undefined) | inconclusive [inhibitor, single point] | –
C=CCOc1ccccc1CN1CCN(CCc2ccccc2)C(CCO)C1 (centres undefined) | inconclusive [inhibitor, single point] | –
Nc1nnc(SCCN2C(=O)c3ccccc3S2(=O)=O)s1 | – | inactive: -19.8%

SMILES | Potency | activity change, negative = growth inhibition
O=C(N/N=C/C1C(c2ccccc2)C1(Cl)Cl)c1cccc(Br)c1 (centres undefined) | inconclusive [inhibitor, partial curve] | –
CCc1ccccc1N1CC(C(=O)Nc2cc(C)on2)CC1=O (centres undefined) | – | inactive: -0.568%
Cc1nc2cnc(N3CCNCC3)nc2n(C2CC2)c1=O | – | inactive: -16.3%
CN1C(=O)C2(c3ccccc31)c1c(oc3ccccc3c1=O)C(=O)N2CCCO (centres undefined) | – | inactive: 0.89%
CCC[C@H]1CN(c2ccccc2)C(=O)[C@@H]1CC(=O)Nc1ccc(OC)cc1 | inconclusive [inhibitor, single point] | –
COc1ccccc1NS(=O)(=O)c1cccc(C(=O)N2CC(C)OC(C)C2)c1 (centres undefined) | – | inconclusive: -30.7% [inhibitor]
O=C(NCC(=O)N1CCN(c2ccc(C(F)(F)F)cn2)CC1)c1ccc(Br)o1 | active: 6.51 µM | –
COc1ccc(CCCNC(=O)C2(C)Cc3c(-c4ccc5c(c4)OCO5)ccnc3O2)cc1 (centres undefined) | active: 5.8 µM | –
Cc1cc(C(=O)CN2C(=O)NC(c3ccccc3)(c3ccccc3)C2=O)c(C)n1Cc1ccccc1 | inconclusive [inhibitor, partial curve] | –
CC(=O)c1c(C)nn(CC(=O)NC2CCCN(Cc3ccc(CC(C)C)cc3)C2)c1C (centres undefined) | inconclusive [inhibitor, single point] | –
C=CCn1c(=S)[nH]c2sc3c(c2c1=O)CCC3 | inconclusive [inhibitor, single point] | –
COc1ccccc1NS(=O)(=O)c1cccc(C(=O)NCc2ccncc2)c1 | – | inactive: -8.79%
Clc1nccc(N2CCN(c3ccccc3Cl)CC2)n1 | inconclusive [inhibitor, single point] | –
Cc1ccc(Nc2nc(Cl)nc(NC3CCCCC3)n2)cc1 | inconclusive [inhibitor, single point] | –
Cc1ccc(C(=O)N2CCC(C(=O)NCc3cccnc3)CC2)cc1 | – | inactive: -23.3%
CN(C)c1ccc(C(=O)NCc2ccc3c(c2)CCN3C(=O)c2ccccc2)cc1 | inconclusive [inhibitor, single point] | –
CCOC(=O)c1[nH]c2ccc(C)cc2c1N | inconclusive [inhibitor, partial curve] | –
CC(=O)Nc1ccc(S(=O)(=O)NC(CSc2ccc(C(=O)O)cc2[N+](=O)[O-])C(=O)O)cc1 (centres undefined) | – | inactive: 26.4%
CN(CC(=O)Nc1ccc(Cl)cc1)C(=O)CCc1nc2sc3c(c2c(=O)[nH]1)CCCC3 | inconclusive [inhibitor, full curve] | –
COC(=O)c1cc(NC(=O)C2C3C=CC(C3)C2C(=O)O)cc(C(=O)OC)c1 (centres undefined) | – | inactive: 3.17%
CSc1ccc(CNC(=O)Cn2ccc3cc(S(=O)(=O)N4CCCC4)ccc32)cc1 | inconclusive [inhibitor, partial curve] | –
Cc1nnc(SCC2=C(C(=O)O)N3C(=O)C(NC(=O)Cn4cnnn4)[C@@H]3SC2)s1 (some centres undefined) | – | inactive: 1.27%
